Measured values published in PubChem BioAssay AID624417 (National Center for Advancing Translational Sciences (NCATS), 2012).
The whole screen tested about 410,000 compounds, of which about 6,400 (1.6%) were called active. The inconclusive results got no clear call from the source; some entries with a clear call stand among them for comparison. The call rests on the fitted dose curve; in most records, active means well fitted inhibition curve with a large enough effect; inconclusive means small, poorly fitted or top-dose-only effect; inactive means no such curve, though single readings can be large or run the other way. A potency beside an inconclusive call is a rough fit, not a confirmed value.

Each compound was assayed against Glucagon-like peptide 1 receptor (Homo sapiens) (UniProt P43220) (assay: qHTS of GLP-1 Receptor Inverse Agonists (Inhibition Mode)). Conditions: HEK293 GLP-1R CRE-luciferase, luminescence, 24 h, GLP-1R form is constitutively active; series mostly up to 38.3 µM.
Sequence of UniProt P43220 (P43220 whole entry, looked up): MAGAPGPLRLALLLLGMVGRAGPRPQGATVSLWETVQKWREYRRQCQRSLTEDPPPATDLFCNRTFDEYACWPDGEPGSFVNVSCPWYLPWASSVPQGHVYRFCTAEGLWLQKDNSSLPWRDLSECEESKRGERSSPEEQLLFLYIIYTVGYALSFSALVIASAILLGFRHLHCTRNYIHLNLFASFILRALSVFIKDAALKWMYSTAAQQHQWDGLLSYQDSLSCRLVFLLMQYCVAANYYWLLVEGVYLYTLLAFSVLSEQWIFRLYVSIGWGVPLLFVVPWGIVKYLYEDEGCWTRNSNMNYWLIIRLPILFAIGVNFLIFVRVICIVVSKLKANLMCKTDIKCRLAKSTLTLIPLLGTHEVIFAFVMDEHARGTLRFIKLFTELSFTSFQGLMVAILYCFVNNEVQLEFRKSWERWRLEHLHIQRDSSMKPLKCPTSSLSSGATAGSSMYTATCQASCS
In short: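 Inverse agonism was detected as reduced cAMP-driven luciferase luminescence after 24 h compound treatment. The cells were HEK293 clones expressing constitutively active human GLP-1R with the reporter. Reporter-only and GPR119 cell lines served as counterscreen controls.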
Further: nearly all actives have a fitted effect of over 55% in size.
Potency means the concentration at half of the fitted maximal effect; tags describe the fitted curve by direction and shape.

Potency, inactive:
CCC(C)c1ccc2oc(-c3ccc(NC(=O)Cn4cnc5c(=O)n(C)c(=O)n(C)c54)cc3)nc2c1 (centres undefined), O=c1ccnc2n1COCS2, O=C(CC(Nc1ccc(F)cc1)C(=O)O)c1ccccc1 (centres undefined), CCOc1ccc(NC(=O)CSCc2cnn(-c3ccccc3)c2-n2cccc2)cc1, C#CCOc1ccc(CNC[C@H]2O[C@@H](n3cnc4c(N)ncnc43)[C@H](O)[C@@H]2O)cc1

Potency, inconclusive:
O=C(CSc1cccc[n+]1[O-])c1cc2ccccc2o1 2 µM [inhibitor, full curve, poor fit], N#CCC(=O)Nc1ccc(C(=O)OC(C(=O)Nc2cc(C(F)(F)F)ccc2Cl)c2ccccc2)cc1 (centres undefined) 11.2 µM [inhibitor, single point], Cc1ccc(NC(=O)c2c(C)oc3ccc(O)c(CN4CCCCC4)c23)cc1 11.2 µM [inhibitor, partial curve, poor fit], Cn1c(C(=O)N2CCCC(C(=O)NCCCSC3CCCCC3)C2)cc2sccc21 (centres undefined) 17.8 µM [inhibitor, partial curve, poor fit], O=C(CSc1nnc(-c2cccs2)o1)N1CCCCC1 28.2 µM [inhibitor, single point], O=C(c1cccc(F)c1)N1C2C=CC(C2)C1(C(F)(F)F)C(F)(F)F (centres undefined) 2.82 µM [inhibitor, full curve, poor fit], O=S(=O)(c1ccc(Cl)c(NC(=S)N/N=C/c2ccc(O)cc2)c1)N1CCOCC1 17.8 µM [inhibitor, partial curve, poor fit], O=C(Nc1ccc(Cl)cc1)N1N=CCC1c1ccccc1 (centres undefined) 31.6 µM [inhibitor, single point], O=C(Nc1ccccc1)c1cn2ccccc2n1 8.91 µM [inhibitor, partial curve, poor fit], COc1cccc(-c2nnc(-c3ccccc3NC(=O)c3ccc(C(C)(C)C)cc3)o2)c1 0.501 µM [inhibitor, full curve, poor fit], COc1ccc(NC(=O)c2cc(-c3cc(F)ccc3OC(C)C)n[nH]2)c(OC)c1 14.1 µM [inhibitor, single point], COc1ccccc1N1CCN(C(=O)c2nc(-c3ccc(C)cc3)n3c2CCCCC3)CC1 28.2 µM [inhibitor, single point], OCCNc1ncnc2c1c(-c1ccccc1)c(-c1ccccc1)n2Cc1ccco1 12.6 µM [inhibitor, partial curve, poor fit], O=C1[C@H](Cc2ccccc2)NCC=CC[C@H](c2ccc(Cl)cc2)N1Cc1ccc(Cl)cc1 22.4 µM [inhibitor, single point], Cc1ccc2nc(-c3ccccc3)c(Cc3cccc(F)c3)n2c1 12.6 µM [inhibitor, partial curve, poor fit], COc1ccccc1NC(=O)C1Cc2ccccc2CN1C(=O)c1ccco1 (centres undefined) 15.8 µM [inhibitor, single point], CC(C)(C)NS(=O)(=O)c1cnc(Cl)c(Cl)c1 10 µM [inhibitor, single point], CCN1CCN(c2ccc(N3CCN(C(=O)c4ccc(Br)o4)CC3)nn2)CC1 1.58 µM [inhibitor, full curve, poor fit], CC(C)C[C@H](NC(=O)c1[nH]cnc1C(=O)Nc1ccccc1F)C(=O)OC(C)(C)C 2.82 µM [inhibitor, full curve], O=C1NC2(CCCC2)C(=O)N1CC(=O)N(Cc1ccccc1)c1ccccc1 11.2 µM [inhibitor, partial curve, poor fit], Cc1cc2n(n1)SC(Nc1cc(Cl)ccc1Cl)N2 (centres undefined) 12.6 µM [inhibitor, single point], COc1ccccc1Oc1ccc(N/C=C/C(=O)C(C)(C)C)cc1 11.2 µM [inhibitor, partial curve, poor fit], CCC1CCCCN1CCNC(=O)C1CCCN(S(=O)(=O)c2cccc3nsnc23)C1 (centres undefined) 2.51 µM [inhibitor, partial curve, poor fit], CCOc1ccc(N2CC(C(=O)NCc3ccccc3)CC2=O)cc1 (centres undefined) 10 µM [inhibitor, single point], COC(=O)c1sccc1NC(=O)CC1C(=O)NCCN1C(=O)Nc1ccc(OCc2ccccc2)cc1 (centres undefined) 28.2 µM [inhibitor, single point], c1ccc(Cn2c(Cn3c(-c4cnccn4)nc4ccccc43)nc3ccccc32)cc1 0.355 µM [inhibitor, full curve, poor fit], N#Cc1sc2nc(C3CC3)cc(-c3ccccc3)c2c1N 28.2 µM [inhibitor, single point], Cc1cc(NC(=O)COn2nnc3ccc(S(C)(=O)=O)cc32)ccc1Br 22.4 µM [inhibitor, single point], CCOc1ccccc1OCCCC(=O)NC1CCCc2ccccc21 (centres undefined) 2.82 µM [inhibitor, partial curve, poor fit], O=C(CN1CCCCCC1)Nc1ccc(S(=O)(=O)N2CCCCC2)cc1 10 µM [inhibitor, partial curve, poor fit], C/C(N)=C(/C#N)C(=O)CSc1nc(C2CCCCC2)n(-c2ccccc2)n1 28.2 µM [inhibitor, single point], CCCOc1ccc(C(F)(F)F)cc1NC(=O)C1CC(=O)N(Cc2ccco2)C1 (centres undefined) 8.91 µM [inhibitor, partial curve, poor fit]

Potency, active:
COCCn1c(C)cc(C(=O)COC(=O)c2cccc(O)c2)c1C 0.891 µM, Cc1sc2ncnc(SC(C)C(=O)N3c4ccccc4Sc4ccccc43)c2c1C (centres undefined) 8.91 µM
